Source: PubChem BioAssay AID1963576 (National Center for Advancing Translational Sciences (NCATS), 2024)
Screen size: about 46,000 compounds; about 60 (0.1%) were called active. About 3% were inconclusive and are not listed. The call rests on the fitted dose curve; in most records, active means well fitted inhibition curve with a large enough effect; inconclusive means small, poorly fitted or top-dose-only effect; inactive means no such curve, though single readings can be large or run the other way. This is one part of the list.

test: Primary qHTS assay for Inhibitors of ovarian cancer metastasis using an organotypic tumor microenvironment (TME) model.; further: nearly all actives have a fitted effect of over 65% in size;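 on activity change, negative = inhibition: plate controls were DMSO wells for no effect and tomatine positive control wells for full effect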; settings: SKOV3ip1-GFP adhesion/invasion on 3D omental model, fluorescence; series mostly up to 45.8 µM; activity change, negative = inhibition: at the top concentration
In short: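 A 3D layer of primary human omental fibroblasts, mesothelial cells, fibronectin and collagen I, grown 48 hr, received SKOV3ip1-GFP cells in serum-free medium plus compounds at 0.36-46 umol/L. After 2 hr RT and 16 hr 37 C, fixed adherent GFP cells were counted; normalized to DMSO and tomatine.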

| SMILES | activity change, negative = inhibition | outcome |
| --- | --- | --- |
| CC(C)COc1ccc(C(=O)Nc2ccc(S(=O)(=O)Nc3ncccn3)cc2)cc1 | inactive: -2.84% | – |
| O=C(NCc1cccc(Cl)c1)c1cc2ccc3cccnc3c2[nH]1 | inactive: -7.1% | – |
| Cc1cc(C)c(NC(=O)CSc2nc3ccccc3nc2N2CCCCC2)c(C)c1 | inactive: -2.82% | – |
| CC(C(C)N1CC(=O)NC(=O)C1)N1CC(=O)NC(=O)C1 (stereo unspecified) | inactive: 4% | – |
| CCOC(=O)c1ccc(CN(Cc2ccc(F)cc2)S(=O)(=O)c2cc(C(=O)Nc3cccc(C(F)(F)F)c3)ccc2F)cc1 | inactive: 4.8% | – |
| COc1cc2c(=O)c(S(=O)(=O)c3ccc(F)cc3)cn(Cc3ccc(Cl)cc3)c2cc1OC | inactive: 2.77% | – |
| CCOc1ccc(NC(=O)CN2C(=O)C(c3ccccc3)=NC23CCC(C)CC3)cc1 (stereo unspecified) | inactive: -13.4% | – |
| O=C(NC1CCCCCC1)c1ccc2c(c1)sc1nc(-c3ccc(F)cc3)cn12 | inactive: 2.24% | – |
| CCCN1C(C(=O)c2ccccc2)=C(OC(=O)COc2ccccc2)c2ccccc2S1(=O)=O | inactive: -23.4% | – |
| COc1ccc(Cn2c(=O)[nH]c3cc(C(=O)N4CCN(c5cccc(Cl)c5)CC4)ccc3c2=O)cc1 | – | inactive |
| Cn1c(=O)n(-c2ccc(Br)cc2F)c(=O)c2sc3ccccc3c21 | – | inactive |
| Cc1ccc(Cl)cc1NC(=O)C(C)n1nnc2sc3c(c2c1=O)CCCC3 (stereo unspecified) | inactive: -2.08% | – |
| Cc1cccc(N2CCN(S(=O)(=O)c3ccc4c(c3)CCCN4C(=O)C3CCC3)CC2C)c1 (stereo unspecified) | inactive: -8.66% | – |
| COc1ccc(C2C(C(N)=O)=C(C)Nc3nc(CCCO)nn32)c(OC)c1 (stereo unspecified) | inactive: -1.47% | – |
| CC(=O)c1ccc(NC(=O)c2noc3c2CCc2ccccc2-3)cc1 | inactive: -1.28% | – |
| O=C(Nc1ccc(C(=O)OCc2cc(=O)n3c4c(sc3n2)CCCC4)cc1)c1ccccc1 | inactive: -9.26% | – |
| CCOc1ccc(NC(=O)N2CCC(C(N)=O)(N3CCCCC3)CC2)cc1 | inactive: 3% | – |
| Cc1nc(NC(=O)N2CCC[C@@H]2C(N)=O)sc1-c1ccnc(C(C)(C)C(F)(F)F)c1 | inactive: -11.1% | – |
| COc1cccc(Cn2nnc(C(=O)Nc3cc(C)ccc3C)c2N)c1 | inactive: -7.69% | – |
| CCCS(=O)(=O)c1c(S(=O)(=O)CCC)c2cc(CC)ccn2c1C(=O)c1ccc(OC)cc1 | inactive: -4.63% | – |
| COc1ccc(CCNC(=O)c2cnc3ccc(C)cn3c2=O)cc1 | inactive: 10.3% | – |

| SMILES | activity change, negative = inhibition | outcome |
| --- | --- | --- |
| Cc1ccc2nc(NC(=O)CSc3nccn3Cc3ccc(Cl)cc3)sc2c1 | inactive: -17.8% | – |
| Cc1ccn2c(=O)c(C(=O)NCCc3ccccc3)c(O)nc2c1 | – | inactive |
| O=C(NC1CC(=O)N(c2cccc(F)c2)C1)c1ccc(S(=O)(=O)N2CCCC2)cc1 (stereo unspecified) | inactive: -1.92% | – |
| O=C(CCc1nc(-c2cccs2)no1)Nc1ccccc1[N+](=O)[O-] | inactive: 2.3% | – |
| O=C(Cn1c(=O)n(Cc2ccccc2)c(=O)c2sc3ccccc3c21)NCc1ccccc1Cl | inactive: 22.5% | – |
| CCOc1ccccc1CNC(=O)Cn1c(-c2ccccc2)cc(C(C)=O)c1C | inactive: -0.005% | – |
| Cc1cccc(NC(=O)c2cc(S(=O)(=O)N3CCc4ccccc43)ccc2F)c1C | inactive: 2.1% | – |
| CSc1ccc(CCNC(=O)c2cnn(-c3ccccc3)c2-n2cccc2)cc1 | – | inactive |
| CCN(CC)c1cc(C)c2cc(NC(=O)c3cccc(F)c3)ccc2n1 | inactive: -5.67% | – |
| O=C(Nc1cccc(Cl)c1)N1CCSc2ccccc21 | – | inactive |
| Cc1ccc(N2C(=O)CSC23C(=O)N(CC(=O)NCCc2ccccc2)c2ccccc23)cc1C (stereo unspecified) | inactive: 48.6% | – |
| CCCn1cc(S(=O)(=O)c2ccccc2)c(=O)c2cc(F)c(N3CCCCC3)cc21 | inactive: 4.99% | – |
| CCOc1ccccc1NC(=O)c1c(NC(=O)COc2ccccc2)sc2c1CCCCC2 | inactive: -27.4% | – |
| CC(NC(=O)CCCC1=NS(=O)(=O)c2ccccc2N1)c1ccccc1 (stereo unspecified) | inactive: -20.8% | – |
| CCOC(=O)c1cnc2c(ccc3ccccc32)c1Nc1ccccc1OCC | inactive: 1.57% | – |
| COc1ccc(OC)c(-c2cc(C(=O)NCCc3ccccc3)c3c(-c4ccc(C)cc4)[nH]nc3n2)c1 | inactive: 23.8% | – |
| COCCCNC(=O)CS(=O)Cc1nc(-c2cccc(C)c2)oc1C (stereo unspecified) | inactive: 6.16% | – |
| COc1ccc(N2CCN(C(=O)C3CCCN(S(=O)(=O)c4ccc5c(c4)CCCN5C(C)=O)C3)CC2)cc1 (stereo unspecified) | – | inactive |
| Cc1ccc(NC(=O)C2CCN(c3nc4ccccc4nc3C(F)(F)F)CC2)cc1F | – | inactive |
| CCOC(=O)c1cc(-c2ccccc2)n(-c2cccc(C(=O)Nc3cccc(F)c3)c2)c1C | inactive: -12.3% | – |
| COc1ccc(C(=O)Nc2nnc(S(=O)(=O)N3CCCCCC3)s2)cc1OC | inactive: 5.14% | – |

| SMILES | activity change, negative = inhibition | outcome |
| --- | --- | --- |
| CCC(C)n1c(=N)c(C(=O)NCc2ccccc2)cc2c(=O)n3cc(C)ccc3nc21 (stereo unspecified) | inactive: 1.77% | – |
| CCc1cccc(C)c1NC(=O)CC1Oc2ccc(C)cc2NC1=O (stereo unspecified) | inactive: -25.6% | – |
| COc1ccc(CCNC(=O)c2sc3nc4n(c(=O)c3c2C)CCCC4)cc1OC | inactive: 13.4% | – |
| COc1ccc(C(=O)c2oc3ccccc3c2NC(=O)COc2ccccc2)cc1 | inactive: 20.7% | – |
| Cc1ccc(CNC(=O)CCc2c(C)nc3c(c(C)nn3-c3ccccc3)c2C)cc1 | inactive: -9.84% | – |
| COc1ccc(Cl)cc1NS(=O)(=O)c1cc(Br)cc2c1N(C(=O)C1CC1)CC2 | – | inactive |
| O=C(COc1ccc(Cl)cc1)OCc1cc(=O)n2nc(-c3cccs3)sc2n1 | inactive: 9.63% | – |
| CC(C)n1c(=N)c(C(=O)NCc2cccnc2)cc2c(=O)n3ccccc3nc21 | inactive: -15% | – |
| CCC(CC)C(=O)Nc1ccc(-c2cn3cccnc3n2)cc1 | inactive: -26.2% | – |
| Cc1cccc(-c2nc3scc(CCNC(=O)c4ccc(Br)o4)n3n2)c1 | inactive: 5.87% | – |
| Nc1nc2c(c(=O)[nH]1)N(C=O)[C@H](CNc1ccc(C(=O)N[C@@H](CCC(=O)O)C(=O)O)cc1)CN2 | inactive: 0.33% | – |
| Cc1cc(C)cc(Nc2cc(C)nc3nncn23)c1 | – | inactive |
| CNC(=O)C1CCC(Cn2c(=O)c3sccc3n(CC(=O)NCc3cccc(OC)c3)c2=O)CC1 (stereo unspecified) | inactive: -2.61% | – |
| Cc1ccc(Nc2nnc(-c3cc4c(ccc5ccccc54)oc3=O)s2)cc1 | – | inactive |
| COc1cccc(C(=O)N2CCc3c([nH]c4ccccc34)C2c2ccc(SC)cc2)c1 (stereo unspecified) | inactive: 0.43% | – |
| COc1ccccc1NC(=O)CSc1nnc2c3ccccc3n(C(C)C)c2n1 | inactive: -8.13% | – |
| COc1ccc(/C=C\c2onc(C)c2S(=O)(=O)N2CCC(C(=O)Nc3cccc(Cl)c3)CC2)cc1 | – | inactive |
| CCOC(=O)N1CCN(c2ncc3c(n2)CC(c2ccccc2O)CC3=O)CC1 (stereo unspecified) | inactive: 1.6% | – |
| COc1ccc(CCNC(=O)CCc2c(C)nc3cc(-c4ccccc4OC)nn3c2C)c(OC)c1 | inactive: 7.91% | – |
